From publication PMC4336329 (PLoS ONE, 2015)
Among all 310,000 compounds or so, about 2,200 (0.71%) showed an effect of 50% or more. The effect is printed as a negative number. The list shows a part of the results.

Target: human ether-à-go-go-related gene (hERG) potassium channel (human, UniProt Q12809)
Test: primary screen, population patch clamp on CHO cells stably expressing hERG

human ether-à-go-go-related gene (hERG) potassium channel, sequence (Q12809 whole entry, looked up): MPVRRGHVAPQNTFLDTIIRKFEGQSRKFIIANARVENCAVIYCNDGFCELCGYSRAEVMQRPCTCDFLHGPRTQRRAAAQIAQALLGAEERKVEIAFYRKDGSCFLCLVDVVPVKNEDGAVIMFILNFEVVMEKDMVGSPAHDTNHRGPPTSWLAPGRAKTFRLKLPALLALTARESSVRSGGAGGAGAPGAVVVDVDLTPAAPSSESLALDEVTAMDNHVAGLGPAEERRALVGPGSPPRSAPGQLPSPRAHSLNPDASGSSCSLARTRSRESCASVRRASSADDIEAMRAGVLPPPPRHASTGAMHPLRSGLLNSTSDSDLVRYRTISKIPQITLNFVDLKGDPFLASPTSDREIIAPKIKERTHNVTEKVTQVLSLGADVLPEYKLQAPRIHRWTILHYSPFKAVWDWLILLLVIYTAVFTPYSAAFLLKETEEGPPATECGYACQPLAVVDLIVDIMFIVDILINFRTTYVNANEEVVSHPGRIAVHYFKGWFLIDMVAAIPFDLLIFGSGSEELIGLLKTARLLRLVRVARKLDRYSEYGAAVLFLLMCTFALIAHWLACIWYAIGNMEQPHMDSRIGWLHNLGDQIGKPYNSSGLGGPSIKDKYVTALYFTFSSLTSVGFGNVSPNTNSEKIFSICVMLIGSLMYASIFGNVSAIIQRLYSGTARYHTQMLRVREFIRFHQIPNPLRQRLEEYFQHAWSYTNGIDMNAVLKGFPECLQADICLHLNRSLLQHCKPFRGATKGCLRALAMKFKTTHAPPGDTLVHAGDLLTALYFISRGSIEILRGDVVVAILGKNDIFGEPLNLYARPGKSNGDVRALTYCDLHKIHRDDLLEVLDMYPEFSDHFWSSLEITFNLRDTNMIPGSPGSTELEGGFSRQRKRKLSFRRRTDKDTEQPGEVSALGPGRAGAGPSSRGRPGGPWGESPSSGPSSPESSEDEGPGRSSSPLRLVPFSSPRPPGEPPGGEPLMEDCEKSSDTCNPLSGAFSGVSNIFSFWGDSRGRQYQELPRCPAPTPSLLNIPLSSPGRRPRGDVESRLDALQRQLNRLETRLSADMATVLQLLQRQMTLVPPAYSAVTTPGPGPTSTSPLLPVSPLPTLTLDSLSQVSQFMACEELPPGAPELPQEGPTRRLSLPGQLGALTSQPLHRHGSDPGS

SMILES | hERG current change (%, negative = inhibition) at 1uM
CCC(=O)NC(=S)Nc1ccc(NC(=O)COc2ccc(Cl)c(C)c2)cc1 | 7.55%
CCC(C)NC(=O)c1ccc(CSCc2ccccc2Cl)o1 (stereo not shown) | 9.19%
CCOC(=O)C1(CCc2ccccc2)CCN(CC(O)CO)CC1 (stereo not shown) | 1.26%
CCCCOc1ccc(-c2ncc(Cl)cn2)cc1 | 2.78%
CCCn1c2ccccc2c2cn[nH]c(=O)c21 | 11.9%
CCc1ccccc1NC(=O)CCNS(=O)(=O)c1ccc2c(c1)CCC(=O)N2 | 8.71%
CC(CN1CCCC1)OC(=O)C(c1ccccc1)c1ccccc1.Cl (stereo not shown) | -1.34%
Cc1ccc2nc(C)c(C(=O)N/N=C/c3ccccc3[N+](=O)[O-])cc2c1 | 6.68%
COc1ccc(CCNC(=O)C2CCN(c3nn4c(=O)cc(C)nc4s3)CC2)cc1OC | 2.28%
COc1ccc(N2C(=O)CC(N3CCN(S(=O)(=O)c4ccc(Cl)cc4)CC3)C2=O)cc1 (stereo not shown) | 2.11%
Cc1ccc(CN2C(=O)[C@@H]3Cc4c([nH]c5ccccc45)C(C)(C)N3C2=O)cc1 | 15.2%
Cc1ccc(C(C(=O)NC(C)(C)C)N(Cc2ccccc2)C(=O)c2snc(C(N)=O)c2N)o1 (stereo not shown) | 9.44%
CCOC(=O)c1c(CSc2ccccc2)n(C)c2ccc(O)c(CN3CCOCC3)c12 | -0.93%
O=C(NCC(=O)N1CCCCC1)c1ccc(Cl)cc1Cl | 8.88%
COc1ccc(C2CC(c3ccccc3)=NN2c2ccc(C(N)=O)cc2)cc1 (stereo not shown) | 15.6%
Cc1ccc(C(=O)CSc2nnc(-c3ccccc3N)n2C)cc1C | 14%
CCOc1ccc(NS(=O)(=O)c2ccc(NC(=O)c3cccnc3)c(OC)c2)cc1 | 7.15%
CN(C)/N=C/c1ccc(OC(=O)c2cccc([N+](=O)[O-])c2)cc1 | -2.06%
Cc1ccc(CNC(=O)C2CCCN(S(C)(=O)=O)C2)cc1 (stereo not shown) | 12.1%
S=C(NCc1ccncc1)Nc1ccc(Cl)c(Cl)c1 | 6.45%
COc1ccc(-c2c3c(=O)n(C)c(=O)n(C)c3cn2-c2cccc(OC)c2)cc1 | 12.7%
CCC1C(C#N)=C(SC)NC2=C1C(=O)CC(C)(C)C2 (stereo not shown) | -1.27%

SMILES | hERG current change (%, negative = inhibition) at 1uM
CC(=O)C1=C(O)C(=O)N(c2ccc(Br)cc2)C1c1cccc(F)c1 (stereo not shown) | 8.55%
O=C(N/N=C/c1cccs1)c1cnccn1 | 3.24%
CC(C)C[C@@]12C(=O)N(c3cccc(Cl)c3)C(=O)N1[C@H](c1ccc(Cl)cc1)[C@@H]1C(=O)N(C3CCCCC3)C(=O)[C@@H]12 | 9.9%
Cc1ccc(NC(=O)CSc2nnc(-c3ccncc3)o2)cc1C | 14.4%
COc1ccc2nc(SCC(N)=O)[nH]c2c1 | 1.28%
CCN1CCN(S(=O)(=O)c2ccc(Cl)c(C(=O)Nc3ccccc3N3CCCCC3)c2)CC1 | 26%
Cc1ccccc1OCCCC(=O)Nc1ccc(S(=O)(=O)Nc2onc(C)c2C)cc1 | 16.7%
CCn1c(CCNC(=O)c2ccc(C)cc2)n[nH]c1=S | 4.88%
Cc1cccc(/C=C2\Sc3ccc(C(=O)NCC4CCCO4)cc3N(C)C2=O)c1 (stereo not shown) | 15.4%
CCOCCCN(Cc1cc2cc(C)cc(C)c2[nH]c1=O)C(=O)N(CC)CC | 8.2%
Cc1ccc(C(C(=O)NC2CCCCC2)N(C(=O)c2csnn2)C2CCCC2)o1 (stereo not shown) | 12.1%
Cc1ccc2c(c1)c1nnc(SCC(=O)Nc3ccc(N(C)C)cc3)nc1n2CC(=O)O | 5.68%
O=C(CCS(=O)(=O)Cc1ccccc1F)NCc1ccccc1Cl | 9.35%
CN1CCN(c2nc3c(c(=O)[nH]c(=O)n3C)n2CCSc2nnnn2-c2ccccc2)CC1 | 6.39%
CC(C)NC(=O)CSc1nnc(COc2ccccc2Cl)o1 | 6.18%
O=[N+]([O-])c1ccc(-c2ccn[nH]2)o1 | 14.5%
O=C(Cn1cnc2c(nnn2-c2cccc(Cl)c2)c1=O)N1CCOCC1 | 9.1%
COc1cccc(-c2nc(Oc3cccc(C)c3C)c3ccccc3n2)c1O | 6.41%
CCCOC(=O)/C(=C\C=C\c1ccco1)NC(=O)c1ccccc1 | 16.1%
Cc1nn(-c2ccccc2)c(C)c1/C=N/NC(=O)CSc1nnc(SCc2ccc(Cl)cc2)s1 | 10.4%
NS(=O)(=O)c1cc(C(=O)OCC(=O)N2CCc3ccccc3C2)ccc1Cl | -2.01%
